Enrichment ratio data for 153 variants are collected here from a collection of fitness landscapes (doi:10.1126/science.1257360).

The list shows a part of the results. Where only a bound is given, the exact number is not on record here.

The labels stand for the following.
B1: PhoQ; a variant is named by its letters at X, in order, P23837 (parent)
chain: MKKLLRLFFPLSLRVRFLLATAAVVLVLSLAYGMVALIGYSVSFDKTTFRLLRGESNLFYTLAKWENNKLHVELPENIDKQSPTMTLIYDENGQLLWAQRDVPWLMKMIQPDWLKSNGFHEIEADVNDTSLLLSGDHSIQQQLQEVREDDDDAEMTHSVAVNVYPATSRMPKLTIVVVDTIPVELKSSYMVWSWFIYVLSANLLLVIPLLWVAAWWSLRPIEALAKEVRELEEHNRELLNPATTRELTSLVRNLNRLLKSERERYDKYRTTLTDLTHSLKTPLXXLQXXLRSLRSEKMSVSDAEPVMLEQISRISQQIGYYLHRASMRGGTLLSRELHPVAPLLDNLTSALNKVYQRKGVNISLDISPEISFVGEQNDFVEVMGNVLDNACKYCLEFVEISARQTDEHLYIVVEDDGPGIPLSKREVIFDRGQRVDTLRPGQGVGLAVAREITEQYEGKIVAGESMLGGARMEVIFGRQHSAPKDE

In the assay the parent is B1. Description: enrichment ratio after two sorts for PhoP signalling (ratio (wild type AVST 3.29)); higher = more functional. To be noted: with PhoP (E. coli).
Consider MSAA, for which the enrichment ratio was determined as 4.87.

As to WRCM, the enrichment ratio is at most 0.25.

Take NQFM: the enrichment ratio is at most 0.25.

Regarding PMKR, the enrichment ratio was at most 0.25.

For the variant LQRI, the enrichment ratio is at most 0.25.

On to FYDQ, for which the enrichment ratio is at most 0.25.

IKQQ: the enrichment ratio was at most 0.25.

Consider MILA, for which the enrichment ratio was found to be 1.31.

Regarding QFQY, the enrichment ratio is at most 0.25.

As for DHKI, the enrichment ratio was at most 0.25.

With PYTF, the enrichment ratio was at most 0.25.

As to ESRH, the enrichment ratio was at most 0.25.

As for SNHC, the enrichment ratio is at most 0.25.

In the case of QACL, the enrichment ratio was 1.94.

As to VQHM, the enrichment ratio is at most 0.25.

On to FTNH, for which the enrichment ratio is at most 0.25.

On to SYEN, for which the enrichment ratio is at most 0.25.

On to YQFG, for which the enrichment ratio was at most 0.25.

For the variant GVVC, the enrichment ratio was at most 0.25.

As for PQFC, the enrichment ratio is at most 0.25.

Consider WMTA, for which the enrichment ratio is at most 0.25.

For TGTI, the enrichment ratio came out at 13.2.

With FQDV, the enrichment ratio was at most 0.25.

For QRCY, the enrichment ratio is at most 0.25.

With QSNA, the enrichment ratio is at most 0.25.

Consider IVIG, for which the enrichment ratio is at most 0.25.

With QCMT, the enrichment ratio is at most 0.25.

For RMDR, the enrichment ratio was at most 0.25.

KKRS: the enrichment ratio was at most 0.25.

As for RRSQ, the enrichment ratio is at most 0.25.

Regarding HLPM, the enrichment ratio is at most 0.25.

For the variant WDQE, the enrichment ratio was at most 0.25.

For the variant EFMG, the enrichment ratio was at most 0.25.

For PGMG, the enrichment ratio is at most 0.25.

For KKPI, the enrichment ratio was at most 0.25.

Turning to GHLY, the enrichment ratio is at most 0.25.

Regarding KEML, the enrichment ratio is at most 0.25.

NLFW: the enrichment ratio was at most 0.25.

Consider IMAS, for which the enrichment ratio stood at 0.485.

As for HGYQ, the enrichment ratio was at most 0.25.

For GQSG, the enrichment ratio is 4.15.

LEAV: the enrichment ratio was at most 0.25.

In the case of NIDI, the enrichment ratio was at most 0.25.

As for TAQA, the enrichment ratio was at most 0.25.

Consider IMWP, for which the enrichment ratio is at most 0.25.

WKHV: the enrichment ratio is at most 0.25.

As for HVLW, the enrichment ratio is at most 0.25.

RPLA: the enrichment ratio is at most 0.25.

For EQWS, the enrichment ratio is at most 0.25.

Turning to MRAA, the enrichment ratio is at most 0.25.

With RGGW, the enrichment ratio is at most 0.25.

Turning to VNAN, the enrichment ratio was at most 0.25.

Turning to ESDK, the enrichment ratio was at most 0.25.

With VISW, the enrichment ratio was at most 0.25.

With HTHW, the enrichment ratio was at most 0.25.

Turning to KLSI, the enrichment ratio was at most 0.25.

Take SEDT: the enrichment ratio is at most 0.25.

In the case of FMEW, the enrichment ratio is at most 0.25.

With PRMT, the enrichment ratio is at most 0.25.

As for FGPF, the enrichment ratio amounted to 0.931.

For the variant LCLM, the enrichment ratio was 0.3.

On to QINK, for which the enrichment ratio was at most 0.25.

Turning to LGCA, the enrichment ratio is at most 0.25.

As to KSFG, the enrichment ratio was at most 0.25.

Turning to ITKD, the enrichment ratio is at most 0.25.

As to KQTG, the enrichment ratio is at most 0.25.

With SHYD, the enrichment ratio is at most 0.25.

As for ANSQ, the enrichment ratio turned out to be 8.17.

For YNKE, the enrichment ratio is at most 0.25.

Regarding HRNH, the enrichment ratio was at most 0.25.

Consider LWYR, for which the enrichment ratio was at most 0.25.

As to RCYH, the enrichment ratio is at most 0.25.

In the case of ASDK, the enrichment ratio is at most 0.25.

On to SFFA, for which the enrichment ratio is at most 0.25.

Turning to RFNG, the enrichment ratio was at most 0.25.

Regarding YTSE, the enrichment ratio is at most 0.25.

Take YPMF: the enrichment ratio was at most 0.25.

For YTQG, the enrichment ratio was at most 0.25.

For the variant RRMY, the enrichment ratio is at most 0.25.

Regarding MYWY, the enrichment ratio was at most 0.25.

Regarding SDYN, the enrichment ratio was at most 0.25.

On to FCRN, for which the enrichment ratio was at most 0.25.

As to GYFI, the enrichment ratio was at most 0.25.

On to YHHM, for which the enrichment ratio was at most 0.25.

Regarding LCCM, the enrichment ratio was at most 0.25.

Regarding QCPF, the enrichment ratio was at most 0.25.

In the case of IYPY, the enrichment ratio was at most 0.25.

Regarding AFDI, the enrichment ratio is at most 0.25.

Regarding NPFD, the enrichment ratio is at most 0.25.

As for TWVD, the enrichment ratio was at most 0.25.

Turning to SINL, the enrichment ratio amounted to 3.51.

As for MEAQ, the enrichment ratio worked out at 10.4.

For the variant QYDF, the enrichment ratio is at most 0.25.

For the variant DSRE, the enrichment ratio is at most 0.25.

For the variant MMCN, the enrichment ratio amounted to 3.36.

Consider QGFP, for which the enrichment ratio is at most 0.25.

As for FQCM, the enrichment ratio is 10.7.

With QNAN, the enrichment ratio is at most 0.25.

With QPWR, the enrichment ratio is at most 0.25.

Regarding MIMH, the enrichment ratio was at most 0.25.

As for ENIH, the enrichment ratio is at most 0.25.

Take HKVR: the enrichment ratio was at most 0.25.

AIIV: the enrichment ratio came out at 3.98.

As to YTAW, the enrichment ratio was at most 0.25.

QQWF: the enrichment ratio was at most 0.25.

With HSAS, the enrichment ratio was 0.421.

SVCA: the enrichment ratio came to 9.74.

For TSLI, the enrichment ratio came out at 11.8.

For PTLW, the enrichment ratio is at most 0.25.

With LWTR, the enrichment ratio was at most 0.25.

As for ICFW, the enrichment ratio was at most 0.25.

For the variant TCFQ, the enrichment ratio is at most 0.25.

Regarding TPWF, the enrichment ratio is at most 0.25.

For NKLM, the enrichment ratio was at most 0.25.

As to VWEV, the enrichment ratio is at most 0.25.

With WFLK, the enrichment ratio is at most 0.25.

Consider DRAY, for which the enrichment ratio was at most 0.25.

MDWL: the enrichment ratio is at most 0.25.

For SKDD, the enrichment ratio was at most 0.25.

In the case of TDIL, the enrichment ratio was determined as 1.54.

As to DPMP, the enrichment ratio is at most 0.25.

As for LHLP, the enrichment ratio is at most 0.25.

Regarding AMMM, the enrichment ratio amounted to 8.4.

In the case of VLGS, the enrichment ratio was at most 0.25.

GFWK: the enrichment ratio is at most 0.25.

In the case of VYWA, the enrichment ratio was at most 0.25.

Turning to MNVW, the enrichment ratio was at most 0.25.

For the variant AMTA, the enrichment ratio was determined as 7.86.

With NIFL, the enrichment ratio is at most 0.25.

In the case of HARI, the enrichment ratio was at most 0.25.

With MYWQ, the enrichment ratio was at most 0.25.

QYLC: the enrichment ratio was at most 0.25.

Regarding NTFD, the enrichment ratio is at most 0.25.

With TCRG, the enrichment ratio was at most 0.25.

HKAC: the enrichment ratio was at most 0.25.

Regarding NKPE, the enrichment ratio was at most 0.25.

As for LPQV, the enrichment ratio is at most 0.25.

Take KILM: the enrichment ratio was at most 0.25.

Consider HRTA, for which the enrichment ratio is at most 0.25.

As to FCGR, the enrichment ratio is at most 0.25.

In the case of FDAL, the enrichment ratio is at most 0.25.

VFWF: the enrichment ratio was at most 0.25.

With HQFS, the enrichment ratio was at most 0.25.

Turning to FASI, the enrichment ratio was at most 0.25.

Regarding MPIR, the enrichment ratio is at most 0.25.

For TRFM, the enrichment ratio was at most 0.25.

For WRCT, the enrichment ratio is at most 0.25.

As to QILA, the enrichment ratio is at most 0.25.

Consider QQLQ, for which the enrichment ratio was at most 0.25.

Consider KLIR, for which the enrichment ratio was at most 0.25.

Regarding LNDE, the enrichment ratio is at most 0.25.

Turning to PGVE, the enrichment ratio is at most 0.25.

For RWNN, the enrichment ratio is at most 0.25.
